Measured values published in the supplement of paper PMC10126150.
Sequences with one replicate were seen in a single cluster, so their values are uncertain.

The sequences below were run on ATP (assay: switch fluorescence ratio, 500 uM ATP over buffer (Cy3 cluster intensity, sum of 5 cycles each) (fold (ratio)); higher = stronger signal-on switching upon ATP binding; sequences stand for … in TCGTCGGCAGCGTCAGATGTGTATAAGAGACAGTTTTTTTTTTTTTTTTTTTTTTTTT…TC). Conditions: aptamer strand: ATP DNA aptamer (quencher-CACCTGGGGGAGTATTGCGGAGGAAGG + anchor), 100 nM annealed; ATP concentration: 500 uM; one replicate.
Procedure, shortened: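 Five buffer/ATP imaging cycles were run on Cy3-labelled switching-strand clusters on a modified Illumina MiSeq flow-cell, with NaOH stripping and re-annealing between cycles. In each cycle, clusters annealed to 100 nM quencher-labelled ATP aptamer were imaged in selection buffer, then after 15 min with 500 uM ATP at 22 °C. Per cluster, the fluorescence ratio is summed target-cycle over summed buffer-cycle Cy3 intensity, averaged per switch-domain sequence. Only clusters within 100-1000 RFU were kept.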
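Further: ATP exposure 15 min at 22 °C before imaging.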

**Q.** For TGGGACGG, which switch fluorescence ratio is on record?
**A.** 1.03

**Q.** For TGGGAGTTCG, which switch fluorescence ratio is on record?
**A.** 1.04

**Q.** Which switch fluorescence ratio does the source give for TGGGATTGAG here?
**A.** 1

**Q.** How did the switch fluorescence ratio turn out when TGGGATTGGT was run?
**A.** 0.966

**Q.** TGGGCACCGA was tested. Which switch fluorescence ratio did it give?
**A.** 1.07

**Q.** TGGGCAGCGG was tested. Which switch fluorescence ratio did it give?
**A.** 0.969

**Q.** TGGGCAGTCG was tested. Which switch fluorescence ratio did it give?
**A.** 1.1

**Q.** Which switch fluorescence ratio does the source give for TGGGCCAGCA here?
**A.** 0.97

**Q.** How did the switch fluorescence ratio turn out when TGGGGAGAAT was run?
**A.** 1.03

**Q.** TGGGGAGAT was tested. Which switch fluorescence ratio did it give?
**A.** 1

**Q.** With TGGGGAGGAC as the sequence, how does the switch fluorescence ratio read?
**A.** 1.11

**Q.** How did the switch fluorescence ratio turn out when TGGGGATTT was run?
**A.** 0.994

**Q.** Which switch fluorescence ratio does the source give for TGGGGCAACC here?
**A.** 1.04

**Q.** Which switch fluorescence ratio does the source give for TGGGGCCGAC here?
**A.** 0.913

**Q.** For TGGGGCCTAC, which switch fluorescence ratio is on record?
**A.** 0.991

**Q.** With TGGGGGATCC as the sequence, how does the switch fluorescence ratio read?
**A.** 0.977

**Q.** Which switch fluorescence ratio does the source give for TGGGGGTCCA here?
**A.** 0.987

**Q.** With TGGGGGTTT as the sequence, how does the switch fluorescence ratio read?
**A.** 1.09

**Q.** How did the switch fluorescence ratio turn out when TGGGGTAAC was run?
**A.** 0.983

**Q.** Which switch fluorescence ratio does the source give for TGGGGTATT here?
**A.** 1.03

**Q.** Which switch fluorescence ratio does the source give for TGGGGTCCAA here?
**A.** 0.979

**Q.** TGGGGTTCAA was tested. Which switch fluorescence ratio did it give?
**A.** 1.02

**Q.** Which switch fluorescence ratio does the source give for TGGGTATGCG here?
**A.** 1.05

**Q.** With TGGGTCACGA as the sequence, how does the switch fluorescence ratio read?
**A.** 0.968

**Q.** With TGGGTCTCAT as the sequence, how does the switch fluorescence ratio read?
**A.** 0.975

**Q.** How did the switch fluorescence ratio turn out when TGGGTCTCGT was run?
**A.** 0.995

**Q.** With TGGGTCTGTA as the sequence, how does the switch fluorescence ratio read?
**A.** 1.01

**Q.** How did the switch fluorescence ratio turn out when TGGGTCTTGT was run?
**A.** 1.01

**Q.** For TGGGTGATTC, which switch fluorescence ratio is on record?
**A.** 1.02

**Q.** TGGGTGCAGG was tested. Which switch fluorescence ratio did it give?
**A.** 1.06

**Q.** For TGGGTGTCAA, which switch fluorescence ratio is on record?
**A.** 1.04

**Q.** With TGGGTGTGTG as the sequence, how does the switch fluorescence ratio read?
**A.** 0.996

**Q.** Which switch fluorescence ratio does the source give for TGGGTTAAGG here?
**A.** 1.04

**Q.** Which switch fluorescence ratio does the source give for TGGGTTATA here?
**A.** 0.946

**Q.** With TGGGTTCGAC as the sequence, how does the switch fluorescence ratio read?
**A.** 0.947

**Q.** Which switch fluorescence ratio does the source give for TGGTAAGGAT here?
**A.** 0.969

**Q.** How did the switch fluorescence ratio turn out when TGGTACGATC was run?
**A.** 0.963

**Q.** TGGTACGCAT was tested. Which switch fluorescence ratio did it give?
**A.** 1.34

**Q.** For TGGTACGCTC, which switch fluorescence ratio is on record?
**A.** 1.06

**Q.** TGGTACTAAG was tested. Which switch fluorescence ratio did it give?
**A.** 1.05

**Q.** With TGGTACTTT as the sequence, how does the switch fluorescence ratio read?
**A.** 1.01

**Q.** For TGGTAGAGCT, which switch fluorescence ratio is on record?
**A.** 0.982

**Q.** TGGTAGTGG was tested. Which switch fluorescence ratio did it give?
**A.** 1.11

**Q.** Which switch fluorescence ratio does the source give for TGGTATCGAT here?
**A.** 1

**Q.** How did the switch fluorescence ratio turn out when TGGTATTAAT was run?
**A.** 1.02

**Q.** Which switch fluorescence ratio does the source give for TGGTCAAGAA here?
**A.** 1.01

**Q.** How did the switch fluorescence ratio turn out when TGGTCAGCGC was run?
**A.** 0.99

**Q.** Which switch fluorescence ratio does the source give for TGGTCATGGT here?
**A.** 1.02

**Q.** TGGTCGAGTT was tested. Which switch fluorescence ratio did it give?
**A.** 1.01

**Q.** Which switch fluorescence ratio does the source give for TGGTCGGAAA here?
**A.** 0.996

**Q.** For TGGTCTGTGC, which switch fluorescence ratio is on record?
**A.** 0.965

**Q.** For TGGTGCCACT, which switch fluorescence ratio is on record?
**A.** 0.996

**Q.** TGGTGCCATT was tested. Which switch fluorescence ratio did it give?
**A.** 1.01

**Q.** Which switch fluorescence ratio does the source give for TGGTGCCCGA here?
**A.** 0.998

**Q.** For TGGTGCCTGT, which switch fluorescence ratio is on record?
**A.** 0.979

**Q.** For TGGTGGATCC, which switch fluorescence ratio is on record?
**A.** 0.999

**Q.** Which switch fluorescence ratio does the source give for TGGTGGTACT here?
**A.** 1.05

**Q.** Which switch fluorescence ratio does the source give for TGGTGTAGAC here?
**A.** 0.99

**Q.** How did the switch fluorescence ratio turn out when TGGTGTATCA was run?
**A.** 0.988

**Q.** With TGGTGTGCGC as the sequence, how does the switch fluorescence ratio read?
**A.** 0.966

**Q.** TGGTT was tested. Which switch fluorescence ratio did it give?
**A.** 0.98

**Q.** TGGTTAAACG was tested. Which switch fluorescence ratio did it give?
**A.** 0.99

**Q.** Which switch fluorescence ratio does the source give for TGGTTAACGA here?
**A.** 1.01

**Q.** How did the switch fluorescence ratio turn out when TGGTTAGGTG was run?
**A.** 1.15

**Q.** For TGGTTATAGA, which switch fluorescence ratio is on record?
**A.** 1

**Q.** Which switch fluorescence ratio does the source give for TGGTTATTGG here?
**A.** 1.05

**Q.** For TGGTTCCATA, which switch fluorescence ratio is on record?
**A.** 0.933

**Q.** With TGGTTGATGC as the sequence, how does the switch fluorescence ratio read?
**A.** 1

**Q.** TGGTTGATTA was tested. Which switch fluorescence ratio did it give?
**A.** 0.996

**Q.** How did the switch fluorescence ratio turn out when TGGTTGCAAG was run?
**A.** 0.939

**Q.** With TGGTTGGCAT as the sequence, how does the switch fluorescence ratio read?
**A.** 0.936

**Q.** With TGGTTGGCTG as the sequence, how does the switch fluorescence ratio read?
**A.** 1.01

**Q.** With TGGTTGTAGA as the sequence, how does the switch fluorescence ratio read?
**A.** 0.989

**Q.** How did the switch fluorescence ratio turn out when TGGTTTAGTA was run?
**A.** 1.02

**Q.** How did the switch fluorescence ratio turn out when TGGTTTATG was run?
**A.** 0.992

**Q.** Which switch fluorescence ratio does the source give for TGGTTTTACA here?
**A.** 0.966

**Q.** Which switch fluorescence ratio does the source give for TGTAACAGGG here?
**A.** 1.01

**Q.** How did the switch fluorescence ratio turn out when TGTAAGACGT was run?
**A.** 1.01

**Q.** TGTAATAGGT was tested. Which switch fluorescence ratio did it give?
**A.** 0.989

**Q.** Which switch fluorescence ratio does the source give for TGTAATATCG here?
**A.** 0.968

**Q.** Which switch fluorescence ratio does the source give for TGTAATCTCA here?
**A.** 1.03

**Q.** How did the switch fluorescence ratio turn out when TGTACACAGC was run?
**A.** 1.08

**Q.** For TGTACCCTCG, which switch fluorescence ratio is on record?
**A.** 1.02

**Q.** With TGTACTCACG as the sequence, how does the switch fluorescence ratio read?
**A.** 1.48

**Q.** TGTAGCGCTG was tested. Which switch fluorescence ratio did it give?
**A.** 1.01

**Q.** TGTAGGTAGT was tested. Which switch fluorescence ratio did it give?
**A.** 1.01

**Q.** TGTAGGTATA was tested. Which switch fluorescence ratio did it give?
**A.** 0.984

**Q.** With TGTAGGTGAG as the sequence, how does the switch fluorescence ratio read?
**A.** 1.17

**Q.** TGTAGTCCCT was tested. Which switch fluorescence ratio did it give?
**A.** 0.998

**Q.** TGTAGTCGCA was tested. Which switch fluorescence ratio did it give?
**A.** 1

**Q.** For TGTAGTTATG, which switch fluorescence ratio is on record?
**A.** 0.998

**Q.** For TGTAGTTTG, which switch fluorescence ratio is on record?
**A.** 1

**Q.** How did the switch fluorescence ratio turn out when TGTATAATAT was run?
**A.** 1.02

**Q.** For TGTATCGGCA, which switch fluorescence ratio is on record?
**A.** 0.973

**Q.** Which switch fluorescence ratio does the source give for TGTATGGTAC here?
**A.** 1.05

**Q.** With TGTCAGCGAT as the sequence, how does the switch fluorescence ratio read?
**A.** 1.22

**Q.** TGTCAGGCGA was tested. Which switch fluorescence ratio did it give?
**A.** 1.05

**Q.** With TGTCATAATA as the sequence, how does the switch fluorescence ratio read?
**A.** 1.06

**Q.** TGTCCACGGT was tested. Which switch fluorescence ratio did it give?
**A.** 1.04

**Q.** Which switch fluorescence ratio does the source give for TGTCCCTCGC here?
**A.** 1.11

**Q.** TGTCCGCGCT was tested. Which switch fluorescence ratio did it give?
**A.** 2.46
